Consider 54 molecules from ChEMBL document CHEMBL4888484, “Replenishing the malaria drug discovery pipeline: Screening and hit evaluation of the MMV Hit Generation Library 1 (HGL1) against asexual blood stage Plasmodium falciparum ,using a nano luciferase reporter read-out” (2022).

Out of some 150,000 compounds screened, about 540 (0.36%) showed an effect of 50% or more. This is one part of the list.

This assay relates to Plasmodium falciparum. Kind of assay: Primary screen in NF54 nanoGlo assay, in single point, at 2uM, 72h; a lower Z score goes with more inhibition. In kind it is functional, Erythrocyte. Particulars: timepoint 72 hour.
Turning to `CN(C)CCNCCOc1ccccc1`, the “% Inhibition” value is listed as -4% and the Z score is 0.56.
The corresponding values for `Cc1ccc(-c2nnc(-c3cccc(S(=O)(=O)N(C)C)c3)o2)n1C` are -18% and 2.78.
For the molecule `O=C(Cn1nnc2ccccc21)NC1CCCCC1`, the “% Inhibition” value was -10% and the Z score turned out to be 1.41.
Taken in the same sequence, the figures for `O=C(c1ccc(F)cc1)N1C2COCC1C2` were -8% and 1.08.
On to `c1cnc(-c2noc(C3CCCCCC3)n2)cn1`, for which the “% Inhibition” value turned out to be 2% and the Z score is -0.27.
The corresponding values for `COC(=O)CCNC(=O)COc1cnn(C)c1C(F)(F)F` are -4% and 0.55.
The corresponding values for `Cn1nc(CC2CCN(C(=O)c3cnc[nH]3)CC2)n(-c2ccccc2)c1=O` are 1% and -0.24.
The corresponding values for `Cc1ccc(N2C(=O)N[C@H]3C[C@]2(C)Oc2ccc(Br)cc23)cc1C` are -1% and 0.14.
As to `O=C1O[C@](Nc2ccc(Cl)cc2)(c2ccc(Cl)cc2)c2ccccc21`, the “% Inhibition” value is recorded as 1% and the Z score was -0.2.
The corresponding values for `CN(Cc1ccccc1)c1nc2ncn(CC(=O)Nc3cccc(Br)c3)c(=O)c2s1` are 26% and -3.47.
As for `O=C(c1cnn2cc(CCO)cnc12)N1CC=C(c2ccccc2)CC1`, the “% Inhibition” value is reported as -7% and the Z score is listed as 0.97.
The corresponding values for `CN1CCCN(C(=O)c2ccncc2)c2nc3ccccc3nc21` are -8% and 0.96.
The corresponding values for `CN(C)S(=O)(=O)N1CCCC[C@H]1c1n[nH]c2c1COCC2` are 2% and -0.2.
Turning to `Cc1noc(C)c1C(=O)N1C[C@@H]2COc3ccccc3C[C@]2(CO)C1`, the “% Inhibition” value is listed as -12% and the Z score came out at 1.95.
Taken in the same sequence, the figures for `CCCc1nnc(N2CCCC3(CCN(C)CC3)CC2)o1` were -6% and 1.26.
The corresponding values for `CCc1ccc(C(=O)N2CCC3(CC2)OC[C@@H](C(=O)N2CCN(C(C)=O)CC2)N3C(=O)c2ccc(F)cc2)cc1` are -7% and 0.7.
The corresponding values for `Cc1c(Cl)cncc1NC(=O)N[C@H]1CCCNC1=O` are -7% and 1.14.
`Cn1ccc([C@H]2CCCN(C(=O)c3cccc(C#N)c3)C2)n1`: the “% Inhibition” value is reported as -6% and the Z score is given as 0.72.
In the case of `COCC(C)N1CCN(S(=O)(=O)N2CC(C)CC(C)C2)CC1` (stereo not drawn), the “% Inhibition” value is on record as -3% and the Z score was 0.44.
The corresponding values for `Cc1cc(N2CCN(c3cccc(C)c3C)CC2)n2cnnc2n1` are -5% and 0.64.
The corresponding values for `Cc1n[nH]c(C2CN(C(C)c3nc4ccccc4c(=O)[nH]3)CCO2)n1` (stereo not drawn) are -13% and 1.5.
As for `Cc1cn2cc(C(=O)N[C@@H](C)c3nnc(N)s3)ccc2n1`, the “% Inhibition” value was -8% and the Z score is listed as 1.24.
Taken in the same sequence, the figures for `O=C(c1[nH]nc2c1CCCCC2)N1CCN(Cc2ccccc2Cl)CC1` were -5% and 0.61.
For `CCOC(=O)N1CCN(C2CCC(C)C2)CC1` (stereo not drawn), the “% Inhibition” value was -13% and the Z score came to 2.38.
As for `O=C1CN(C(=O)c2cc(S(=O)(=O)N3CCCCC3)ccc2N2CCCC2)CCN1`, the “% Inhibition” value is reported as -12% and the Z score worked out at 1.5.
The corresponding values for `CC(C)(C)c1nc(CS(=O)(=O)Cc2ccccc2F)no1` are 12% and -1.6.
The corresponding values for `Cc1ccc2c(=O)c(-c3nc(-c4ccc(Cl)cc4)no3)cn(CC(=O)Nc3cccc(C)c3C)c2n1` are -12% and 1.03.
Taken in the same sequence, the figures for `Nc1nnc(C2CCN(C(=O)NCCc3ccc(F)cc3)CC2)o1` were 2% and -0.3.
On to `CCCNc1nc(OC(C(F)(F)F)C(F)(F)F)nc(N2CCCCCC2)n1`, for which the “% Inhibition” value is recorded as -8% and the Z score worked out at 1.21.
Taken in the same sequence, the figures for `Cc1cnn(C2CN(CC(=O)Nc3nnc(C)s3)C2)c1` were 3% and -0.55.
As to `C[C@@H](CC(=O)Nc1ccc(F)cc1)Cc1nnc2c(=O)n(-c3cccc(F)c3)ccn12`, the “% Inhibition” value is given as -4% and the Z score is on record as 0.53.
Taken in the same sequence, the figures for `N#Cc1c(NCc2cccnc2)ncnc1N1CCCC1` were -14% and 1.37.
Taken in the same sequence, the figures for `CCn1cc(CNCc2cnn(C)n2)c(C)n1` were -10% and 1.65.
The corresponding values for `CCOC1CC(O)(CNS(=O)(=O)c2cc(F)cc(Cl)c2)C1(C)C` (stereo not drawn) are 1% and -0.2.
`O=C(Cc1ccccc1)Nc1ccc(C(=O)NC2CCCCC2)cc1`: the “% Inhibition” value is given as 8% and the Z score is -1.28.
The corresponding values for `CCc1nnc(CN(CC)C[C@H]2CCOC(C)(C)C2)o1` are -14% and 2.42.
Taken in the same sequence, the figures for `CN(C)S(=O)(=O)c1ccc(N2CCCCC2)c(C(=O)NC[C@@H](c2ccco2)N2CCCC2)c1` were 34% and -3.84.
Taken in the same sequence, the figures for `COc1ccccc1Cc1nc(CCC(C)C)nn1C` were -15% and 2.29.
For the molecule `N#Cc1cc(Br)ccc1NC1CC(=O)N2CCCCC12` (stereo not drawn), the “% Inhibition” value came out at 34% and the Z score is listed as -3.82.
The corresponding values for `CN1CCN(c2cc(N3CC(C)(C)[C@@](C)(O)C3)nc(N)n2)CC1` are -5% and 0.49.
The corresponding values for `Cc1cccc(C)c1NC(=O)[C@H](C)n1nc(C)c2c(C)onc2c1=O` are -1% and 0.07.
The corresponding values for `COc1ccc(OC)c(-n2c(-c3ccccc3)cc(C(=O)N3CCN(C/C=C/c4ccccc4)CC3)c2C)c1` are -8% and 1.24.
As to `CC(C)[C@@H]1N(C(=O)c2ccnn2C2CCCC2)CC12CCC2`, the “% Inhibition” value is listed as -5% and the Z score is listed as 0.72.
The corresponding values for `CCn1cc(C(=O)N2CC(n3cc(COCC4CC4)nn3)C2)cn1` are -3% and 0.63.
Taken in the same sequence, the figures for `Cc1ccc(Cl)cc1NC(=O)Cn1nc2c3ccccc3ncn2c1=O` were -6% and 1.
Taken in the same sequence, the figures for `Cc1cc(CN2CCN(C(=O)Nc3ccc(F)cn3)CC2)on1` were -24% and 3.29.
Turning to `C[C@H]1COCCN1C(=O)CCc1ccco1`, the “% Inhibition” value is -2% and the Z score is reported as 0.25.
The corresponding values for `c1cncc(-c2n[nH]c(C3CCC3)n2)c1` are -11% and 2.07.
The corresponding values for `Cc1nn(C(C)C)cc1CNc1cnc2[nH]ccc2c1` are -2% and 0.42.
In the case of `O=S1(=O)NC[C@H](O)CN(Cc2ccccc2)C[C@@]2(COc3cc(-c4ccccc4)ccc31)C[C@@H](O)[C@@H](O)C2`, the “% Inhibition” value is recorded as -17% and the Z score was 2.13.
Taken in the same sequence, the figures for `COC(=O)CN(CCN1CCOCC1)Cc1cccc2cccnc12` were 1% and -0.12.
The corresponding values for `COCCN(CCc1ccccc1)c1nnc(-c2ccc(C)s2)n1C` are -5% and 0.77.
The corresponding values for `COc1ccc(-c2cnc3ncnn3c2N2CCN(C(=O)NCc3cccc(C)c3)CC2)cc1` are 2% and -0.21.
For `C[C@H](NS(=O)(=O)Cc1ccon1)c1cccc(OC(F)F)c1`, the “% Inhibition” value is given as -2% and the Z score turned out to be 0.32.

A word on the % Inhibition: it is the change of the read-out against control, counted positive when it falls.
